The subject of assay [1] is isolated rat islets. The assay can be described thus: NO- and cytokine-induced islet cell death, vital staining with propidium iodide + bisbenzimide. Type of assay: cell-based. The conditions noted are these: 24 h; for necrotic cells, percentage of total cell number: 10 μM Compound I, mean ± SEM, n=3. How it is done:
Following the incubation period, islets are vital stained with propidium iodide+ bisbenzimide and photographed in a fluorescence microscope. Apoptotic (white condensed or fragmented nuclei) and necrotic (red or pink non-fragmented nuclei) are counted and expressed as percentage of total cell number.

The test system of assay [2] is islet cells. The assay can be described thus: Streptozotocin-induced islet cell death in vitro. Type of assay: cell-based. The following applies: for percentage necrotic cells: 10 μM Compound I added 24 h before, mean ± SEM, n=3. As for the experimental part: It is tested whether Compound I protects against the diabetogenic drug streptozotocin in vitro.
Assay [3] relates to ERK. The assay can be described thus: DETA/NO- and cytokine-induced ERK activation in rat islets (immunoblotting). The class given is cell-based. The following applies: for Phospho-ERK per total ERK: n=4; for Phospho-ERK: recalculated from Table 5. How it is done:
Connection between c-Abl and different MAP kinases: It is searched for a connection between c-Abl and the different MAP kinases p38, JNK and ERK that might act as down steam effectors of c-Abl. […] Islets are then analyzed for phosphorylation of p38, JNK2 and ERK1/2 using phosphospecific antibodies and immunoblotting.

The subject of assay [4] is NMRI mice. Nature of the assay: Streptozotocin-induced diabetes in mice, blood glucose. The class given is in vivo. The conditions noted are these: Compound I 200 mg/kg gavage. How it is done: The animals have free access to tap water and pelleted food throughout the study. The bedding material is changed weekly. Weight and blood glucose are determined using the Pen Sensor (MediSense, Waltham, Mass., USA) prior to the experiment. […] On day 0 mice are injected with 120 or 160 mg/kg bodyweight of streptozotozin (Sigma-Aldrich Co. St. Louis, Mo., USA) in the tail vein. Streptozotocin is dissolved in 0.9% NaCl just prior to injection. Weight and blood glucose are determined on day 0, 1, 2, 3, 5, 7, 9 on blood samples collected from the tail. On day 9 the animals are sacrificed by cervical dislocation. All animal experimentation is approved by the local Animal Ethics Committee (Tierp, Sweden).

In assay [5] the test system is isolated rat islets. Nature of the assay: Cytokine-induced NO production (nitrite levels). Type of assay: cell-based. The conditions noted are these: cytokines 24 h; cell type not stated at the place. An excerpt: FIG. 1. […] Results are means± SEM for three independent observations.
Assay [6] has as its system human islets. The following applies: Brefeldin A 10 μM, 10 μM Salt I, 24 h.

Consider `Cc1ccc(NC(=O)c2ccc(CN3CCN(C)CC3)cc2)cc1Nc1nccc(-c2cccnc2)n1` [Compound I], for which the results for the “necrotic cells, percentage of total cell number” value in assay [1] (Control (no toxic agent)), in assay [1] (DETA/NO 0.5 mM) and in assay [1] (IL-1β 25 U/ml + IFN-γ 1000 U/ml + TNF-α 1000 U/ml) were 3.2 ± 0.9%, 4.9 ± 1.2 % and 32.8 ± 3.2 %, respectively. Also, the “cell death induced by the NO donor” value in assay [1] (DETA/NO 0.5 mM, 10 μM) is listed as “clearly counteracted”. Also, the “cytokine-induced islet cell necrosis” value in assay [1] (IL-1β + IFN-γ + TNF-α, 10 μM) is listed as “partially decreased”. The “protection against streptozotocin in vitro” value in assay [2] (0.4 mM streptozotocin) is “highly, significant”; in assay [2] (0.6 mM streptozotocin) it was “intermediate”; in assay [2] (0.75 mM streptozotocin) it was “protects only weakly”. The percentage necrotic cells came to 7.3 ± 2.4 % in assay [2] (0.4 mM streptozotocin 6 h), 41.3 ± 6.2 % in assay [2] (0.6 mM streptozotocin 6 h), 75.3 ± 5.2 % in assay [2] (0.75 mM streptozotocin 6 h) and 0.5 ± 0.2% in assay [2] (Control (no streptozotocin)). The “Phospho-ERK per total ERK” value in assay [3] (Compound I alone, 10 μM 24 h pre-incubation) is 174 ± 94% of control; in assay [3] (Cytokines 20 min + 10 μM Compound I 24 h pre-incubation), 1179 ± 64% of control; in assay [3] (DETA/NO 20 min + 10 μM Compound I 24 h pre-incubation) it was 482 ± 162% of control. Besides, the Phospho-ERK was 123% of corresponding group without any Compound I addition in assay [3] (Cytokines + 10 μM Compound I) and 67% of corresponding group without any Compound I addition in assay [3] (DETA/NO + 10 μM Compound I). Also, the “counteraction of DETA/NO-induced activation of ERK” value in assay [3] (DETA/NO 2 mM 20 min, 10 μM Compound I, one range stated for p38, JNK and ERK) is 25-45%. Moreover, the “cytokine-induced MAPK activation (ERK)” value in assay [3] (cytokines 20 min, 10 μM Compound I) was “augmented”. Moreover, the “protection against streptozotocin-induced diabetes” value is given as “protects completely” in assay [4] (120 mg/kg streptozotocin injection) and “protects partially” in assay [4] (160 mg/kg streptozotocin). Also, in assay [5], the “more nitrite released from cytokine plus Compound I exposed cells as compared to cytokines alone” value is 35%.

Take `CS(=O)(=O)O.Cc1ccc(NC(=O)c2ccc(CN3CCN(C)CC3)cc2)cc1Nc1nccc(-c2cccnc2)n1` [Salt I]: the “effect on islet cell viability by itself” value in assay [1] (10 μM, no toxic agent) is given as “does not affect islet cell viability”. In addition, the “Brefeldin-induced islet cell death (ER stress)” value in assay [6] is recorded as “partially counteracts”.

The record behind these values is US7875616B2, “Use of tyrosine kinase inhibitor to treat diabetes” (priority 2003, dated 2011).
